Patent publication US5639887A, “MDR reversal agents” (priority 1995, dated 1997)
“And” between values parts separate entries of the source, which are not always exact repeats. Equal entries are not always repeated. The name of at least one read-out is uncertain.

How the values were obtained:
[1] = test system: human epidermoid carcinoma KB/8.5; assay: In vivo evaluation of MDR-1 reversal agents against human epidermoid carcinoma KB/8.5 implanted SC in athymic nude mice; design: species or system human (tumor in athymic nude mice)
Experimental: The multiple drug resistant human epidermoid carcinoma KB/8.5 is propagated in medium containing colchicine (10 nanograms/ml) to maintain drug resistance. Colchicine is removed from the medium, for two cell passages, prior to subcutaneous (SC) implant of 8×10^6 KB/8.5 tumor cells into athymic "nude" mice (Harlan Sprague Dawley). […] Individual mouse tumor mass and mean tumor mass for each treatment group is determined on Day +14 and Day +21 of the test period. For each treatment group, the Relative Tumor Growth, RTG, is calculated as follows: [formula]
Statistical analysis of Log Relative Tumor Growth is carried out using the Student t-test. Transformation of the data from absolute mean tumor mass (mgs tumor mass) to Log Relative Tumor Growth prior to statistical analysis has two beneficial effects:
1) it corrects the data for differences in mean tumor mass of the different treatment groups at the start of the test period (Day 0); and
2) the Log transformation of the data more adequately reflects the exponential growth pattern of the SC tumors and makes the use of the Student t-test more appropriate.

[2] = test system: bisantrene-resistant human ovarian carcinoma cells S1-B1-20 (OVCAR-3 subclone); assay: Screening assay for reversal agents: Difference Score with/without 20 μM bisantrene; type: cell-based; settings: alone vs with 20 μM bisantrene, 3 days, difference in % cell survival; for Difference Score at 1 microM: test agent 1 microM; for Difference Score at 10 microM: test agent 10 microM; for Difference Score at 20 microM: test agent 20 microM
Experimental: Such cells are sorted by a fluorescent activated cell sorter (FACS; Becton Dickinson Model 440).
Cells, prepared by trypsinization, are plated at 20,000 cells/well in media with and without bisantrene. Then, test agents at varying concentrations are added to the cells. […] Completed plates are incubated for 3 days at 37° C. in a moisturized 7% CO2 atmosphere. […] Dye content/well is read at 540 nm in a microtiter reader. Values are electronically processed, % cell survival compared to untreated cells is computed, and the results are expressed as the difference between these values. Experiments are run in the presence of the test agent alone and the test agent in combination with 20 μM bisantrene. The Difference Score between those two experiments is reported below for 3 different concentrations of test agent.

COc1ccc(C(C#N)(CCCN2CCc3cc(OC)c(OC)cc3C2)Sc2ccc(C)cc2)cc1OC (stereo not drawn) [Example 3, α-(3,4-Dimethoxyphenyl)-3,4-dihydro-6,7-dimethoxy-α-[(4-methylphenyl)thio]-2(1H)-isoquinolinepentanenitrile]
Relative Tumor Growth Day 21 ([1]; doxorubicin 8 mg/kg IV + compound 25 mg/kg/dose SC at -2 h and +2 h, listed as Ex-3): 11.29 and 8.02
Relative Tumor Growth Day 21 ([1]; doxorubicin 8 mg/kg IV + compound 200 mg/kg/dose SC at -2 h and +2 h, listed as Ex-3): 7.34 and 5.49

COc1ccc(C(C#N)(CCCCCCCCCCCN2CCc3cc(OC)c(OC)cc3C2)Sc2ccc(C)cc2)cc1OC (stereo not drawn) [Example 14, α-(3,4-Dimethoxyphenyl)-3,4-dihydro-6,7-dimethoxy α-[(4-methylphenyl)thio]-2(1H)-isoquinoline tridecanenitrile]
Difference Score at 1 microM [2]: 47
Difference Score at 10 microM [2]: 47
Difference Score at 20 microM [2]: 14
Relative Tumor Growth Day 21 ([1]; doxorubicin 8 mg/kg IV + compound 50 mg/kg/dose SC at -2 h and +2 h, listed as Ex-14): 10.03 and 5.89
Relative Tumor Growth Day 21 ([1]; doxorubicin 8 mg/kg IV + compound 100 mg/kg/dose SC at -2 h and +2 h, listed as Ex-14): 6.25 and 5.40

COc1ccc(C(C#N)(CCCCCN2CCc3cc(OC)c(OC)cc3C2)Sc2ccc(C)cc2)cc1OC (stereo not drawn) [Example 17, α-(3,4-Dimethoxyphenyl)-3,4-dihydro-6,7-dimethoxy-α-[(4-methylphenyl)thio]-2(1H)-isoquinolineheptanenitrile]
Relative Tumor Growth Day 21 ([1]; doxorubicin 8 mg/kg IV + compound 50 mg/kg/dose SC at -2 h and +2 h, listed as Ex-17): 7.85 and 6.09
Relative Tumor Growth Day 21 ([1]; doxorubicin 8 mg/kg IV + compound 75 mg/kg/dose SC at -2 h and +2 h, listed as Ex-17): 9.18 and 7.37

COc1ccc(C(C#N)(CCCCCN2Cc3cc(OC)c(OC)cc3C2)Sc2ccc(C)cc2)cc1OC (stereo not drawn) [Example 26, α-(3,4-Dimethoxyphenyl)-1,3-dihydro-5,6-dimethoxy-α-[(4-methylphenyl)thio]-2H-isoindole-2-heptanenitrile]
Relative Tumor Growth Day 21 ([1]; doxorubicin 8 mg/kg IV + compound 25 mg/kg/dose SC at -2 h and +2 h, listed as Ex-26): 9.62 and 9.06 and 5.49

COc1ccc(C(C#N)(CCCCCN2CCc3cc(OC)c(OCCCl)cc3C2)Sc2ccc(C)cc2)cc1OC (stereo not drawn) [Example 32, 7-(2-Chloroethoxy)-α-(3,4-dimethoxyphenyl)-3,4-dihydro 6-methoxy-α-[(4-methylphenyl)thio]-2(1H)-isoquinoline heptanenitrile]
Difference Score at 1 microM [2]: 79
Difference Score at 10 microM [2]: 68
Difference Score at 20 microM [2]: 35
Relative Tumor Growth Day 21 ([1]; doxorubicin 8 mg/kg IV + compound 50 mg/kg/dose SC at -2 h and +2 h, listed as Ex-32): 12.91 and 12.43
Relative Tumor Growth Day 21 ([1]; doxorubicin 8 mg/kg IV + compound 100 mg/kg/dose SC at -2 h and +2 h, listed as Ex-32): 9.20 and 10.66
Relative Tumor Growth Day 21 ([1]; doxorubicin 8 mg/kg IV + compound 200 mg/kg/dose SC at -2 h and +2 h, listed as Ex-32): 3.90 and 7.33

COc1ccc(C(C#N)(CCCCCN2CCc3cc(OC)c(OCCn4ccnc4)cc3C2)Sc2ccc(C)cc2)cc1OC (stereo not drawn) [Example 33, α-(3,4-Dimethoxyphenyl)-3,4-dihydro-7-[2-(1H-imidazol-1-yl)ethoxy]-6-methoxy-α-[(4-methylphenyl)thio]-2(1H)-isoquinolineheptanenitrile]
Difference Score at 1 microM [2]: 62
Difference Score at 10 microM [2]: 71
Difference Score at 20 microM [2]: 21
Relative Tumor Growth Day 21 ([1]; doxorubicin 8 mg/kg IV + compound 25 mg/kg/dose SC at -2 h and +2 h, listed as Ex-33): 5.20 and 7.70
Relative Tumor Growth Day 21 ([1]; doxorubicin 8 mg/kg IV + compound 50 mg/kg/dose SC at -2 h and +2 h, listed as Ex-33): 6.04 and 7.55
Relative Tumor Growth Day 21 ([1]; doxorubicin 8 mg/kg IV + compound 100 mg/kg/dose SC at -2 h and +2 h, listed as Ex-33): 6.38 and 5.63
Relative Tumor Growth Day 21 ([1]; doxorubicin 8 mg/kg IV + compound 200 mg/kg/dose SC at -2 h and +2 h, listed as Ex-33): 3.98 and 5.94

COc1ccc(C(CCCCCCN2Cc3cc(OC)c(OC)cc3C2)Sc2ccc(C)cc2)cc1OC (stereo not drawn) [Example 49, 2-[7-(3,4-Dimethoxyphenyl]-7-[(4-methylphenyl]thio]-beptyl]-2,3-dihydro-5,6-dimethoxy-1H-isotndole]
Difference Score at 1 microM [2]: 24
Difference Score at 10 microM [2]: 84
Difference Score at 20 microM [2]: 40
Relative Tumor Growth Day 21 ([1]; doxorubicin 8 mg/kg IV + compound 50 mg/kg/dose SC at -2 h and +2 h, listed as Ex-49): 8.28 and 11.17
Relative Tumor Growth Day 21 ([1]; doxorubicin 8 mg/kg IV + compound 100 mg/kg/dose SC at -2 h and +2 h, listed as Ex-49): 3.83 and 7.47
Relative Tumor Growth Day 21 ([1]; doxorubicin 8 mg/kg IV + compound 200 mg/kg/dose SC at -2 h and +2 h, listed as Ex-49): 6.13 and 4.65

COc1ccc(CC2c3cc(OC)c(OC)cc3CCN2CCCCCC(C#N)(Sc2ccc(C)cc2)c2ccc(OC)c(OC)c2)cc1OC (stereo not drawn) [Example 55, α-(3,4-Dimethoxyphenyl)-1-[(3,4-dimethoxyphenyl)-methyl]-3,4-dihydro-6,7-dimethoxy-α-[(4-methylphenyl)-thio]-2(1H)-isoquinolineheptanenitrile]
Difference Score at 1 microM [2]: 69
Difference Score at 10 microM [2]: 67
Difference Score at 20 microM [2]: 66
Relative Tumor Growth Day 21 ([1]; doxorubicin 8 mg/kg IV + compound 25 mg/kg/dose SC at -2 h and +2 h, listed as Ex-55): 9.31 and 5.65

COc1ccc(C(CCCCCN2CCc3cc(OC)c(OC)cc3C2)SC2CCCCC2)cc1OC (stereo not drawn) [Example 61, 2-[6-(Cyclohexylthio)-6-(3,4-dimethoxyphenyl)hexyl]-1,2,3,4-tetrahydro-6,7-dimethoxyisoquinoline]
Difference Score at 1 microM [2]: 56
Difference Score at 10 microM [2]: 85
Difference Score at 20 microM [2]: 34
Relative Tumor Growth Day 21 ([1]; doxorubicin 8 mg/kg IV + compound 25 mg/kg/dose SC at -2 h and +2 h, listed as Ex-61): 8.74 and 10.20
Relative Tumor Growth Day 21 ([1]; doxorubicin 8 mg/kg IV + compound 200 mg/kg/dose SC at -2 h and +2 h, listed as Ex-61): 4.51 and 6.13

COc1ccc(C(CCCCCN2CCc3cc(OC)c(OC)cc3C2)SCc2ccccc2)cc1OC (stereo not drawn) [Example 64, 2-[6-(3,4-Dimethoxyphenyl)-6-[(phenylmethyl)thio]-hexyl]-1,2,3,4-tetrahydro-6,7-dimethoxyisoquinoline]
Difference Score at 1 microM [2]: 29
Difference Score at 10 microM [2]: 80
Difference Score at 20 microM [2]: 35
Relative Tumor Growth Day 21 ([1]; doxorubicin 8 mg/kg IV + compound 50 mg/kg/dose SC at -2 h and +2 h, listed as Ex-64): 9.02 and 12.82
Relative Tumor Growth Day 21 ([1]; doxorubicin 8 mg/kg IV + compound 100 mg/kg/dose SC at -2 h and +2 h, listed as Ex-64): 8.00 and 8.27

COc1ccc(C(CCCCCN2CCc3cc(OC)c(OC)cc3C2)SC(C)(C)C)cc1OC (stereo not drawn) [Example 66, 2-[6-(3,4-Dimethoxyphenyl)-6[(1,1-dimethylethyl)thio]hexyl]-1,2,3,4-tetrahydro-6,7-dimethoxyisoquinoline]
Difference Score at 1 microM [2]: 8
Difference Score at 10 microM [2]: 73
Difference Score at 20 microM [2]: 69
Relative Tumor Growth Day 21 ([1]; doxorubicin 8 mg/kg IV + compound 25 mg/kg/dose SC at -2 h and +2 h, listed as Ex-66): 10.52 and 9.89
Relative Tumor Growth Day 21 ([1]; doxorubicin 8 mg/kg IV + compound 50 mg/kg/dose SC at -2 h and +2 h, listed as Ex-66): 9.72 and 9.90

COc1ccc(C(C#N)(CCCCCN2Cc3cc(OC)c(OCCn4ccnc4)cc3C2)Sc2ccc(C)cc2)cc1OC.Cl.Cl (stereo not drawn) [Example 110, α-(3,4-Dimethoxyphenyl)-1,3-dihydro-5-[2-(1H-imidazol-1-yl)ethoxy]-6-methoxy-α-[(4-methylphenyl)thio]-2H-isoindole-2-heptanenitrile dihydrochloride]
Difference Score at 1 microM [2]: 89
Difference Score at 10 microM [2]: 34
Difference Score at 20 microM [2]: 3

COc1cc2c(cc1OC)CN(CCCCCCC(Sc1ccccc1)c1ccccc1)CC2 (stereo not drawn) [Example 112, 1,2,3,4-Tetrahydro-6,7-dimethoxy-2-[7-phenyl-7-(phenylthio]heptyl]isoquinoline]
Relative Tumor Growth Day 21 ([1]; doxorubicin 8 mg/kg IV + compound 25 mg/kg/dose SC at -2 h and +2 h, listed as Ex-112): 9.93 and 7.34 and 7.21
Relative Tumor Growth Day 21 ([1]; doxorubicin 8 mg/kg IV + compound 50 mg/kg/dose SC at -2 h and +2 h, listed as Ex-112): 9.32 and 6.99
Relative Tumor Growth Day 21 ([1]; doxorubicin 8 mg/kg IV + compound 100 mg/kg/dose SC at -2 h and +2 h, listed as Ex-112): 7.26 and 6.82

COC(=O)C(CCCCCN1Cc2cc(OC)c(OC)cc2C1)(Sc1ccc(C)cc1)c1ccc(OC)c(OC)c1 (stereo not drawn) [Example 124, α-(3,4-Dimethoxyphenyl)-1,3-dihydro-5,6-dimethoxy-α-[(4-methylphenyl)thio]-2H-isoindole-2-heptanoic acid methyl ester]
Difference Score at 1 microM [2]: 64
Difference Score at 10 microM [2]: 39
Difference Score at 20 microM [2]: 26
